The other results are listed elsewhere or left out. At the low end of the ranking, values are background and their order means little.
target: T1, GST-Rok-C97-191 (UniProt O34857); assay: protein binding microarray; conditions: Rok is a gene silencer of Bacillus subtilis; high values mean tight binding; most listed sequences are background and not binding sites; double strand, one strand shown;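 note: rank score from −0.5 (least bound) to 0.5 (best bound)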
T1 sequence: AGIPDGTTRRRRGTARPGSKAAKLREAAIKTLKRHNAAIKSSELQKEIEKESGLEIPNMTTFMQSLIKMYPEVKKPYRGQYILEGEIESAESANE

| Sequence | binding signal |
| --- | --- |
| CCCGCTCG | -0.26 E-score |
| AGCTAATC | 0.102 E-score |
| CCGCGGGC | -0.218 E-score |
| CACACAGG | -0.154 E-score |
| CAGCGACA | -0.0598 E-score |
| ATACCTGG | 0.0834 E-score |
| CCCCGTAG | -0.149 E-score |
| GCACAATA | 0.27 E-score |
| TTATGAAA | 0.211 E-score |
| ACTGCACC | 0.128 E-score |
| CTTAATCC | -0.0759 E-score |
| ATTTTGGC | -0.11 E-score |
| AGATCGTC | -0.0785 E-score |
| AGCGCCAT | -0.149 E-score |
| AGTGTCCA | -0.00668 E-score |
| AGCACATG | -0.0988 E-score |
| CTAGAATC | 0.241 E-score |
| AGGTCCGG | -0.256 E-score |
| TACGAGTA | 0.28 E-score |
| CACCAGGG | -0.265 E-score |
| CGGTGACA | -0.0541 E-score |
| CCGTACGA | 0.0427 E-score |
| ACCTTGTA | 0.0183 E-score |
| GTACAAAA | 0.243 E-score |
| ACTCTGAG | -0.242 E-score |

| Sequence | binding signal |
| --- | --- |
| ATTTGAAC | 0.0178 E-score |
| CACGGTCA | -0.0748 E-score |
| CGCCCACG | -0.176 E-score |
| TGGGCCCA | -0.312 E-score |
| AAGAATAC | 0.159 E-score |
| GGCTGCGA | -0.0517 E-score |
| AGGTACTG | 0.0073 E-score |
| TACTATGA | 0.213 E-score |
| CTGACTGA | -0.196 E-score |
| AAGATGGG | 0.188 E-score |
| CGGCGACC | -0.367 E-score |
| GAACAGCA | -0.0292 E-score |
| CGTACTAC | 0.305 E-score |
| GAGTCCGA | -0.152 E-score |
| CTGCCCAC | -0.253 E-score |
| GATTTTGC | 0.0453 E-score |
| GTTCGTGA | 0.0204 E-score |
| AGCGCACC | -0.128 E-score |
| ACAAGGGA | -0.168 E-score |
| AAATTGGG | 0.0128 E-score |
| GTTACCAA | 0.109 E-score |
| AAAGCTTT | 0.011 E-score |
| GAATAATC | -0.0939 E-score |
| TGGCCCAA | -0.287 E-score |
| AGACAATA | 0.0922 E-score |

| Sequence | binding signal |
| --- | --- |
| CAACTGCA | 0.0818 E-score |
| CCACGATA | -0.0343 E-score |
| AGCGTTGG | -0.154 E-score |
| ACCACGTG | -0.026 E-score |
| CGACGAAC | -0.0119 E-score |
| CAAACTGG | -0.126 E-score |
| ATATTAGG | 0.117 E-score |
| GAAATTGC | 0.239 E-score |
| AGGGCTAC | -0.136 E-score |
| GGTTGTCA | -0.0877 E-score |
| ACTCTGTA | -0.0465 E-score |
| CCGAAACG | -0.189 E-score |
| ATCTCAAA | 0.165 E-score |
| CAGCTGGA | -0.139 E-score |
| CACTAATG | 0.134 E-score |
| AATCTTGG | 0.0215 E-score |
| ATTATAGA | 0.318 E-score |
| AGGCTTTA | -0.0666 E-score |
| ACAAGTGA | 0.0744 E-score |
| CAGTAATA | 0.29 E-score |
| TTCCTCAA | 0.041 E-score |
| ATCTAGGA | 0.0645 E-score |
| GGGTGGGA | -0.0405 E-score |
| ACTACAAG | 0.137 E-score |
| ATCCTGTA | 0.176 E-score |

| Sequence | binding signal |
| --- | --- |
| AGTAGTCC | 0.00719 E-score |
| GGTATATA | 0.406 E-score |
| ATCACTAA | 0.0896 E-score |
| CATTCGCA | -0.197 E-score |
| TAATTTAA | 0.396 E-score |
| AATCAATC | -0.079 E-score |
| CCCAGACC | -0.31 E-score |
| GCTTATAA | 0.101 E-score |
| ATTTTGCC | 0.0574 E-score |
| TATGGACA | 0.042 E-score |
| GTTTAACA | 0.0582 E-score |
| AGCCCGCG | -0.35 E-score |
| GTACCAGA | 0.0231 E-score |
| CAGCACAG | -0.063 E-score |
| CCAGAGCC | -0.226 E-score |
| AAGGATTG | -0.07 E-score |
| AGCACAAG | -0.0106 E-score |
| AATGCAGC | -0.146 E-score |
| AAACATGA | 0.102 E-score |
| ATCCTTAG | 0.108 E-score |
| CGTAAGGC | -0.192 E-score |
| CCTGGCAA | -0.109 E-score |
| CAGTGCAA | -0.132 E-score |
| AAGTGCCA | -0.136 E-score |
| AGTCCCAG | -0.171 E-score |

| Sequence | binding signal |
| --- | --- |
| CCACGCGG | -0.289 E-score |
| AGCGGCGC | -0.343 E-score |
| GGGGACAC | -0.14 E-score |
| CTCCTTAC | -0.067 E-score |
| ACCAGCGG | -0.105 E-score |
| CCTGGGCA | -0.246 E-score |
| AGGACATC | -0.218 E-score |
| AGAGCTAA | 0.148 E-score |
| TGGCGTAA | 0.0802 E-score |
| ATGGCTCA | -0.061 E-score |
| AGACGAAT | -0.195 E-score |
| TAATCCCA | 0.0537 E-score |
| GAGGCGCA | -0.133 E-score |
| GCGTGTTA | -0.0342 E-score |
| GCTAGGAC | -0.135 E-score |
| AAACTCGC | -0.018 E-score |
| CGTAGGTA | 0.336 E-score |
| AAGGGCAG | -0.195 E-score |
| CAGTTGAA | 0.0858 E-score |
| ATGTCCGC | -0.0634 E-score |
| CCAGATGC | -0.278 E-score |
| ACGTTACG | -0.0241 E-score |
| GCTCGTCA | -0.151 E-score |
| ACCGGAAG | -0.166 E-score |
| GCGCGTGA | -0.293 E-score |

| Sequence | binding signal |
| --- | --- |
| ATGGGCTA | -0.0101 E-score |
| TCATATCA | 0.0493 E-score |
| CAGATGGG | -0.0872 E-score |
| ACCCCGAT | -0.108 E-score |
| GGCCTGCA | -0.18 E-score |
| ACGAAGTG | 0.057 E-score |
| ATATCCTG | 0.00586 E-score |
| AAATCATT | 0.17 E-score |
| CCGGTGGC | -0.144 E-score |
| ACGAACCG | -0.0905 E-score |
| AACAACCG | -0.0775 E-score |
| GAATAACA | -0.0158 E-score |
| CGGCTCAG | -0.157 E-score |
| CAGTACAC | 0.00755 E-score |
| AGTGCGAA | -0.0952 E-score |
| ACGGTGTC | -0.179 E-score |
| GTAAGGGA | 0.0551 E-score |
| CCTGTTTA | -0.0563 E-score |
| ACAATCGA | 0.0259 E-score |
| CTTCATAA | 0.0906 E-score |
| GATCTCGA | 0.0929 E-score |
| ACCAAAGC | -0.0869 E-score |
| ATCGGCTA | -0.0669 E-score |
| ATACGACA | -0.0485 E-score |
| TATTTTAA | 0.309 E-score |

| Sequence | binding signal |
| --- | --- |
| AAAGGGGT | -0.157 E-score |
| GGCCTTCA | -0.25 E-score |
| ACTGAGAA | -0.0376 E-score |
| AAGCAACT | 0.179 E-score |
| AGCAATAA | -0.108 E-score |
| GATCTCCC | -0.165 E-score |
| CCTGGCGC | -0.266 E-score |
| ACCGTGAT | 0.034 E-score |
| ATGTTTGA | 0.123 E-score |
| ACTCAATC | 0.0834 E-score |
| AACGAGTC | -0.0998 E-score |
| ATCATCGC | -0.0163 E-score |
| GATAGGCC | 0.00256 E-score |
| AATACTGG | 0.136 E-score |
| CACAGAGA | -0.0959 E-score |
| TAAGTGTA | 0.186 E-score |
| CCAGCAGA | -0.157 E-score |
| CAATATTA | 0.204 E-score |
| CTGCAACA | 0.0545 E-score |
| AGCAGAAA | 0.146 E-score |
| CGAGACGA | -0.0929 E-score |
| AAGCGAGT | -0.052 E-score |
| ATCACTAC | 0.159 E-score |
| GGTAAACC | -0.0735 E-score |
| AGGCGCAA | -0.00123 E-score |

| Sequence | binding signal |
| --- | --- |
| CTTCTAAC | 0.00584 E-score |
| ATAACCTC | 0.0745 E-score |
| ACCATTTG | 0.000265 E-score |
| ATGCTCAG | -0.198 E-score |
| GTCCCGAC | -0.0777 E-score |
| CATCCACG | -0.13 E-score |
| ATGGCACA | -0.159 E-score |
| AGTCGTAG | 0.0976 E-score |
| CTCCTTGC | -0.184 E-score |
| CGCATCCC | -0.335 E-score |
| GTACATCA | 0.177 E-score |
| TCACCGCA | -0.176 E-score |
| ATATGTAA | 0.28 E-score |
| AGATAGTG | 0.174 E-score |
| ATAGCTGG | 0.0967 E-score |
| GCAGATTA | 0.028 E-score |
| CCCGGTTA | -0.0284 E-score |
| AGGTATGC | 0.0845 E-score |
| GTTTTAAA | 0.047 E-score |
| CGAGCGAA | -0.106 E-score |
| AAGCACGT | 0.017 E-score |
| ATTAGCTA | 0.318 E-score |
| CAGCGCTA | -0.0185 E-score |
| ACTTATAA | 0.338 E-score |
| CCGTTTGC | 0.0204 E-score |

| Sequence | binding signal |
| --- | --- |
| ATTCTCCG | 0.247 E-score |
| TATTTCAA | 0.177 E-score |
| GTGATGCA | -0.132 E-score |
| CTCTGGCA | -0.125 E-score |
| ATCGACAT | 0.0133 E-score |
| CATCTAGA | 0.0183 E-score |
| CAATCGAC | -0.0898 E-score |
| GACACACA | 0.00916 E-score |
| CCAGCCAC | -0.275 E-score |
| ACGAGCCC | -0.166 E-score |
| ATTCGCAC | -0.058 E-score |
| ATATCACC | 0.121 E-score |
| TCACTTAA | 0.0956 E-score |
| CCGATTTC | -0.243 E-score |
| ATCGATGG | -0.028 E-score |
| GAAGGAAC | -0.108 E-score |
| AGATCTAT | 0.301 E-score |
| CAGTACGG | -0.0207 E-score |
| AGTAGCTA | 0.37 E-score |

From publication PMC6212790
